# Test results reported in the supplement of paper PMC4967469.
# Experiments:
# Assay in all cases: Viability of human cancer cell lines after 72 h of drug (GDSC screen)
# [1] = compound: c1ccc2c(CCNc3ccc(Nc4ccncc4)cc3)c[nH]c2c1 [JNJ-26854165]; settings: top dose 10 µM
# Protocol: (§1)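 Human cancer cell lines in 384-well plates, medium with 10% serum, drug for 72 h over a 256-fold dose range (nine 2-fold or five 4-fold steps up to the top dose). Adherent lines were fixed and stained with the nucleic acid dye Syto60, suspension lines read with resazurin; signal relative to control wells, capped at 0 and 100%. One two-parameter sigmoid per drug and line, fitted in a mixed model over all curves with the slope shared within a line.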
# [2] = compound: CC1(C)CNc2cc(NC(=O)c3cccnc3NCc3ccncc3)ccc21 [AMG-706]; settings: top dose 2 µM; top dose inferred
# Protocol: as §1
# [3] = compound: CCOc1nc(NC(=O)Cc2cc(OC)ccc2OC)cc(N)c1C#N [JNK Inhibitor VIII]; settings: top dose 10 µM; top dose inferred
# Protocol: as §1
# [4] = compound: Cc1sc2c(c1C)C(c1ccc(Cl)cc1)=N[C@@H](CC(=O)OC(C)(C)C)c1nnc(C)n1-2 [JQ1]
# Protocol: as §1
# [5] = compound: CN1CCN(c2ccc([N+](=O)[O-])c3no[n+]([O-])c23)CC1 [NSC-207895]; settings: top dose 20 µM; top dose inferred
# Protocol: as §1
# [6] = compound: COCC[n+]1c2c(n(Cc3cnccn3)c1C)C(=O)c1ccccc1C2=O [YM155]; settings: top dose 5.12 µM
# Protocol: as §1
# [7] = compound: C[C@]1(O)C[C@@H](c2nc(-c3ccc4ccc(-c5ccccc5)nc4c3)c3c(N)nccn32)C1 [OSI-906]; settings: top dose 2.56 µM; top dose inferred
# Protocol: as §1
# [8] = compound: O=C(/C=C/c1cccc(S(=O)(=O)Nc2ccccc2)c1)NO [Belinostat]; settings: top dose 20 µM; top dose inferred
# Protocol: as §1
# [9] = compound: Cc1ccc(C(=O)N(CCCN)[C@@H](c2nc3cc(Cl)ccc3c(=O)n2Cc2ccccc2)C(C)C)cc1 [SB-715992]; settings: top dose 0.128 µM; top dose inferred
# Protocol: as §1
# [10] = compound: COC(=O)[C@H](CCSC)NC(=O)c1ccc(NC[C@@H](N)CS)cc1-c1ccccc1 [FTI-277]; settings: top dose 1.024 µM; top dose inferred
# Protocol: as §1
# [11] = top dose 1 µM, screen: GDSC drug entry 1218, top dose inferred
# [12] = top dose 2.56 µM, screen: GDSC drug entry 163
cell line,measurement,setting,value
"A549 (lung adenocarcinoma, adherent)",AUC,[1],0.959
same,IC50,[1],> 10 µM
same,AUC,[2],0.976
same,IC50,[2],> 2 µM
same,AUC,[3],0.979
same,IC50,[3],> 10 µM
"CRO-AP2 (B-cell lymphoma, suspension)",AUC,[4]; [11],0.989
same,IC50,[4]; [11],> 1 µM
same,AUC,[1],0.83
same,IC50,[1],5.16 µM
same,AUC,[2],0.989
same,IC50,[2],> 2 µM
same,AUC,[3],0.99
same,IC50,[3],> 10 µM
"DIFI (large intestine, adherent)",AUC,[4]; [11],0.986
same,IC50,[4]; [11],> 1 µM
same,AUC,[1],0.94
same,IC50,[1],> 10 µM
same,AUC,[2],0.987
same,IC50,[2],> 2 µM
same,AUC,[3],0.987
same,IC50,[3],> 10 µM
"HCC-366 (non-small cell lung carcinoma, adherent)",AUC,[4]; [11],0.979
same,IC50,[4]; [11],> 1 µM
same,AUC,[1],0.913
same,IC50,[1],> 10 µM
same,AUC,[2],0.988
same,IC50,[2],> 2 µM
same,AUC,[3],0.988
same,IC50,[3],> 10 µM
"Jurkat (T-cell leukaemia, suspension)",AUC,[1],0.977
same,IC50,[1],> 10 µM
same,AUC,[2],0.988
same,IC50,[2],> 2 µM
same,AUC,[3],0.988
same,IC50,[3],> 10 µM
"KATOIII (stomach, semi-adherent)",AUC,[4]; [11],0.987
same,IC50,[4]; [11],> 1 µM
same,AUC,[1],0.94
same,IC50,[1],> 10 µM
same,AUC,[2],0.877
same,IC50,[2],1.72 µM
same,AUC,[3],0.987
same,IC50,[3],> 10 µM
"KNS-62 (lung squamous cell carcinoma, adherent)",AUC,[4]; [11],0.967
same,IC50,[4]; [11],> 1 µM
same,AUC,[1],0.871
same,IC50,[1],> 10 µM
same,AUC,[2],0.908
same,IC50,[2],> 2 µM
same,AUC,[3],0.953
same,IC50,[3],> 10 µM
"LN-405 (glioma, adherent)",AUC,[5],0.984
same,IC50,[5],> 20 µM
same,AUC,[6],0.208
same,IC50,[6],0.034 µM
same,AUC,[7],0.984
same,IC50,[7],> 2.56 µM
same,AUC,[4]; [11],0.967
same,IC50,[4]; [11],> 1 µM
same,AUC,[4]; [12],0.856
same,IC50,[4]; [12],> 2.56 µM
same,AUC,[8],0.546
same,IC50,[8],1.73 µM
same,AUC,[9],0.918
same,IC50,[9],> 0.128 µM
same,AUC,[10],0.983
same,IC50,[10],> 1.02 µM
same,AUC,[3],0.972
same,IC50,[3],> 10 µM
"LU-99A (large cell lung carcinoma, adherent)",AUC,[5],0.974
same,IC50,[5],> 20 µM
same,AUC,[6],0.18
same,IC50,[6],0.0354 µM
same,AUC,[7],0.806
same,IC50,[7],1.28 µM
same,AUC,[4]; [11],0.986
same,IC50,[4]; [11],> 1 µM
same,AUC,[4]; [12],0.591
same,IC50,[4]; [12],0.283 µM
same,AUC,[8],0.627
same,IC50,[8],2.78 µM
same,AUC,[9],0.967
same,IC50,[9],> 0.128 µM
same,AUC,[10],0.974
same,IC50,[10],> 1.02 µM
same,AUC,[1],0.893
same,IC50,[1],> 10 µM
"MEL-HO (melanoma, adherent)",AUC,[4]; [11],0.985
same,IC50,[4]; [11],> 1 µM
same,AUC,[1],0.84
same,IC50,[1],7.04 µM
same,AUC,[2],0.979
same,IC50,[2],> 2 µM
same,AUC,[3],0.986
same,IC50,[3],> 10 µM
"ML-1 (thyroid, adherent)",AUC,[5],0.805
same,IC50,[5],12.2 µM
same,AUC,[6],0.062
same,IC50,[6],< 0.02 µM
same,AUC,[7],0.927
same,IC50,[7],> 2.56 µM
same,AUC,[4]; [11],0.98
same,IC50,[4]; [11],> 1 µM
same,AUC,[4]; [12],0.708
same,IC50,[4]; [12],0.688 µM
same,AUC,[8],0.321
same,IC50,[8],0.359 µM
same,AUC,[9],0.955
same,IC50,[9],> 0.128 µM
same,AUC,[10],0.968
same,IC50,[10],> 1.02 µM
same,AUC,[1],0.834
same,IC50,[1],8.14 µM
"NCI-H196 (small cell lung carcinoma, adherent)",AUC,[5],0.988
same,IC50,[5],> 20 µM
same,AUC,[6],0.375
same,IC50,[6],0.143 µM
same,AUC,[7],0.988
same,IC50,[7],> 2.56 µM
same,AUC,[4]; [11],0.987
same,IC50,[4]; [11],> 1 µM
same,AUC,[4]; [12],0.825
same,IC50,[4]; [12],1.64 µM
same,AUC,[8],0.263
same,IC50,[8],0.254 µM
same,AUC,[9],0.988
same,IC50,[9],> 0.128 µM
same,AUC,[10],0.984
same,IC50,[10],> 1.02 µM
same,AUC,[1],0.949
same,IC50,[1],> 10 µM
"NCI-H441 (lung adenocarcinoma, adherent)",AUC,[5],0.979
same,IC50,[5],> 20 µM
same,AUC,[6],0.092
same,IC50,[6],< 0.02 µM
same,AUC,[7],0.771
same,IC50,[7],1.4 µM
same,AUC,[4]; [11],0.971
same,IC50,[4]; [11],> 1 µM
same,AUC,[4]; [12],0.807
same,IC50,[4]; [12],2.02 µM
same,AUC,[8],0.761
same,IC50,[8],10 µM
same,AUC,[9],0.974
same,IC50,[9],> 0.128 µM
same,AUC,[10],0.968
same,IC50,[10],> 1.02 µM
same,AUC,[1],0.896
same,IC50,[1],> 10 µM
"NCI-H1573 (lung adenocarcinoma, adherent)",AUC,[5],0.975
same,IC50,[5],> 20 µM
same,AUC,[6],0.49
same,IC50,[6],0.301 µM
same,AUC,[7],0.99
same,IC50,[7],> 2.56 µM
same,AUC,[4]; [11],0.988
same,IC50,[4]; [11],> 1 µM
same,AUC,[4]; [12],0.988
same,IC50,[4]; [12],> 2.56 µM
same,AUC,[8],0.564
same,IC50,[8],1.85 µM
same,AUC,[9],0.954
same,IC50,[9],> 0.128 µM
same,AUC,[10],0.99
same,IC50,[10],> 1.02 µM
same,AUC,[1],0.951
same,IC50,[1],> 10 µM
"NCI-H1734 (lung adenocarcinoma, adherent)",AUC,[5],0.978
same,IC50,[5],> 20 µM
same,AUC,[6],0.073
same,IC50,[6],< 0.02 µM
same,AUC,[7],0.893
same,IC50,[7],> 2.56 µM
same,AUC,[4]; [12],0.861
same,IC50,[4]; [12],2.55 µM
same,AUC,[8],0.439
same,IC50,[8],0.836 µM
same,AUC,[9],0.927
same,IC50,[9],> 0.128 µM
same,AUC,[10],0.956
same,IC50,[10],> 1.02 µM
same,AUC,[1],0.849
same,IC50,[1],8.65 µM
"NCI-H1793 (lung adenocarcinoma, adherent)",AUC,[5],0.969
same,IC50,[5],> 20 µM
same,AUC,[6],0.079
same,IC50,[6],< 0.02 µM
same,AUC,[7],0.981
same,IC50,[7],> 2.56 µM
same,AUC,[4]; [11],0.965
same,IC50,[4]; [11],> 1 µM
same,AUC,[4]; [12],0.92
same,IC50,[4]; [12],> 2.56 µM
same,AUC,[8],0.781
same,IC50,[8],12.1 µM
same,AUC,[9],0.95
same,IC50,[9],> 0.128 µM
same,AUC,[10],0.975
same,IC50,[10],> 1.02 µM
same,AUC,[1],0.928
same,IC50,[1],> 10 µM
"NCI-H1915 (large cell lung carcinoma, adherent)",AUC,[5],0.983
same,IC50,[5],> 20 µM
same,AUC,[6],0.063
same,IC50,[6],< 0.02 µM
same,AUC,[7],0.98
same,IC50,[7],> 2.56 µM
same,AUC,[4]; [11],0.986
same,IC50,[4]; [11],> 1 µM
same,AUC,[4]; [12],0.871
same,IC50,[4]; [12],2.48 µM
same,AUC,[8],0.309
same,IC50,[8],0.36 µM
same,AUC,[9],0.721
same,IC50,[9],0.0343 µM
same,AUC,[10],0.925
same,IC50,[10],> 1.02 µM
same,AUC,[1],0.883
same,IC50,[1],> 10 µM

# IC50 is the fitted dose that halves viability relative to control wells, and lower means more sensitive; fits outside the tested doses are given as limits. AUC is the area under the same curve over the 256-fold range up to the top dose, as a fraction; it is 1 without any effect and falls as sensitivity rises. For some of these results: Where the top dose is marked as inferred, it comes from the curve model; the source does not state it. For some of these results: An entry number marks a drug with two screens in the source, which often give different values.
